Consider 22 molecules from publication PMC12136788.

The chains are these.
B1: chr11:22646265:22646266:-_ENSG00000183161_ENST00000327470|hu_hu|motif|central (ssRNA)
RNA: GGGAGUUCUACAGUCCGACGAUCCAGCAUUGCCUAUACAGAACUGAGGCCUGCGCUGAGACCCAAAACUUGUCUUUUCCGGAAUGCACCACUACGAAGAGCUAAUAAGAGGUCUGUCCAGAUGCUAAGACCAGGUACUUCAAACAACAGAGGAUUGAGCAUCA
B2: chr4:95690885:95690886:+_ENSMUSG00000028572_ENSMUST00000156910|mus_mus|mus_mus_mus_hu_False|68_108 (ssRNA)
RNA: GGGAGUUCUACAGUCCGACGAUCUUUAUUUUUAGAAAAAUACCAUGCUAAAAUAUUUUCAAAGGCUAGUCUUAUUUUACCAGAAGUCACAGGCAAGCAGACACUACAAGAAUAUAUGAAAAUGAAACUCAACAAUAUAACUGUCAACAGAGGAUUGAGCAUCA
B3: chr17:5391764:5391765:+_ENSG00000167842_ENST00000381165|hu_hu|FALSE|FALSE (ssRNA)
RNA: GGGAGUUCUACAGUCCGACGAUCUGAGCUUCAAUGACCUAUAGCUCCACCUUUUAGCCACCUGGCUCUUGAUAUUUGUAACUACUCUUCCAAACUGCUUCUACUUUUUGACUACUGCCUCCUACACAAUUCUUCCAAUUCUUACAACAGAGGAUUGAGCAUCA
B4: chr7:151048522:151048523:+_ENSG00000013374_ENST00000566856|hu_mus|hu_hu_hu_mus_True|38_38 (ssRNA)
RNA: GGGAGUUCUACAGUCCGACGAUCCUGUUUCUUAUUUAUUACGAUCUUGAUGUAAUUUUCUUGAAAUCCGAAAGUUUCAGCUAUUUGACACCUCAGGUCUCUGCCAGUGACAUGCAAGCGGGUCUCCAACAAGCUUUUCUUAUCCAACAGAGGAUUGAGCAUCA
B5: chr1:39494564:39494565:+_ENSG00000168653_ENST00000372967|hu_hu|hu_hu_hu_mus_True|28_58 (ssRNA)
RNA: GGGAGUUCUACAGUCCGACGAUCAUGCAUUCGCCUCAUCGUUUUGUACCGAAGCAAGCACUCUUCGAAGUCAUCGAAUUCUAUCUUGCACUCCUUUUUCGCCCGGGUAUAACCGAUCCCGUGUGCACACUCUAUCCACUCUUUCAACAGAGGAUUGAGCAUCA
B6: chr3:9412954:9412955:+_ENSG00000134077_ENST00000452837|hu_mus|hu_hu_hu_mus_False|68_108 (ssRNA)
RNA: GGGAGUUCUACAGUCCGACGAUCGGUUGAUACAUCCUCUUUGAUGGCUGGAUUUUCAUAAUAGUCCAAGAUAUGAGAAUCUGAAGUGCUGCUGGCAUGCUUUUUCUUACCAUCUUUCUCAUCUGCUUUGUCUCCUUGUCCACACAACAGAGGAUUGAGCAUCA
B7: chr5:95130247:95130248:+_ENSG00000164292_ENST00000379982|hu_hu|FALSE|FALSE (ssRNA)
RNA: GGGAGUUCUACAGUCCGACGAUCGGUUUGUGAGUUUCUGAUAUAAUUAUUUCUCUAUACAUGUGAUAUGAAAGAAAGAAACUAUCAGUCUGUCCUCUAUCCCAGUCCAUUUUCCCUCUAUGUAACAAGUCUUUGACUUACAUCCAACAGAGGAUUGAGCAUCA
B8: chr2:157383019:157383020:-_ENSMUSG00000067787_ENSMUST00000109528|mus_mus|FALSE|FALSE (ssRNA)
RNA: GGGAGUUCUACAGUCCGACGAUCGGCAGGAGCCCAGAUACCCAGGCCAAAGAGCAAUGUCUCCCCAUCGCUUCUUUCUUAAAAAUGAGGCAGAGGAAAUACUGGAGGUCUGCAGACAACGAGCAGUUGAGACAUGAUUCCGUCCAACAGAGGAUUGAGCAUCA
B9: chr5:31194218:31194219:+_ENSMUSG00000029165_ENSMUST00000031057|mus_mus|motif|central (ssRNA)
RNA: GGGAGUUCUACAGUCCGACGAUCUAGAUCUACACGAAGUCCAUCCAGAGAAUAGCAGAGAAGCUCUCGGUGGUAAUAAAUACGGUCCAGAGGACUGCUAUGGGUAGAGUAAUUCUCUGAAAAGCGCUGGUCUAGCUGGCUCAGCAACAGAGGAUUGAGCAUCA
B10: 71541968_71542166_3580_CDS_ENSMUSG00000053470_ENSMUST00000065509|mouse|control|control (ssRNA)
RNA: GGGAGUUCUACAGUCCGACGAUCUUGGAUGGUUCUAAGGACUUCUUCUUCUUGUUCACACUGUCCUUUGGGAAUUCCCACAUAAACCAUGACAUUGGCUGCAUCAGAUACAUCUAAGUGAAGAUUUGUGGUCCCAUAUUUCCGCAACAGAGGAUUGAGCAUCA
B11: 110459826_110461364_3090_3pUTR_ENSG00000134987_ENST00000506538|human|control|control (ssRNA)
RNA: GGGAGUUCUACAGUCCGACGAUCCAGCUCUGUUUCAAUUCCUGAUGGGCCUGAUUCUUUCAGAAGGUUGAGAGCAGUGUCAUACUUAUUAUUUACCAGUCCUUCUUCAAGUUUCAAGCAGAAAUCUGAUUUUUGAGCCAAAACCAACAGAGGAUUGAGCAUCA
B12: chr16:46836887:46836888:-_ENSG00000155330_ENST00000285697|hu_mus|FALSE|FALSE (ssRNA)
RNA: GGGAGUUCUACAGUCCGACGAUCACCAACAGAGUUUGAAGACAAAUAUCAGAGAAUAAGUCUUUGAUUGAUAAUUUUUCUAUUUAUUUCUGCCAAGGCAACUGAAAACACGAAAGCCUUCUCAUCAGAGAGGUUAGCAUAGAUCAACAGAGGAUUGAGCAUCA
B13: chr11:87044885:87044886:-_ENSMUSG00000046442_ENSMUST00000055438|mus_mus|FALSE|FALSE (ssRNA)
RNA: GGGAGUUCUACAGUCCGACGAUCAGGACCAAUCAUCUCAACUGGUGGCAAAAAUUGGGUACUGUGAGGUUUGCUUGCUUCUAUUUGUGUGAGAUCUAGGUAGUCUGGAUCUUCCAGCACGUUGAUUUGGGGCCCUGGGCUGAGCAACAGAGGAUUGAGCAUCA
B14: chr17:13115065:13115066:+_ENSMUSG00000068039_ENSMUST00000151287|mus_mus|FALSE|FALSE (ssRNA)
RNA: GGGAGUUCUACAGUCCGACGAUCGAUACUUGCUCCAGAAGCUUUUGCAACAUGCUUCAGGUCUCGUUUUAAAACUCUCCUAACAGCCAUGGCACCAGCUUCCACAAAAUACUUGAGAUACAUAUCAUCAAUGCCACCAGUGGUCAACAGAGGAUUGAGCAUCA
B15: chr10:76910771:76910772:+_ENSG00000156671_ENST00000542569|perfect_dup|FALSE|FALSE (ssRNA)
RNA: GGGAGUUCUACAGUCCGACGAUCCAUGUCAGGCACACGCUCAUGAACAAUAACCAUAAUGAAAGACGUAAACCCAAAUACUAUAAAAACAUAUACACAACUCAGGAUGGUCUUCCAGUACUCUGGGUCCAGUCUUCGAGCAGACAACAGAGGAUUGAGCAUCA
B16: 150069407_150069527_1215_CDS_ENSG00000214022_ENST00000425389|human|control|control (ssRNA)
RNA: GGGAGUUCUACAGUCCGACGAUCCCCGGUGUGCUGCCGCUGGUGGGCCCGCAGGAAGCGCUCCAGCCGGAAGCUCCUGCCGCAGUCGUCGCAGCUGUAGAGGGAGGGGGGGGCUUCGAUCGGGUCCUGCGGGUGCUCUGGCGGCAACAGAGGAUUGAGCAUCA
B17: 109009399_109010728_3671_CDS_ENSMUSG00000053646_ENSMUST00000072093|mouse|control|control (ssRNA)
RNA: GGGAGUUCUACAGUCCGACGAUCGCUGAACUCUGAGACACCGUGUCCUCUUCCAGGCACCUCCACUGCCACAGUGCCAGUCACCUCCUCCCCGCUGGCUCCAGUGAUGCACACAAGACUACUAGAGACAUCAUACUCCCCAGCCAACAGAGGAUUGAGCAUCA
B18: 53454565_53454685_1203_3pUTR_ENSMUSG00000025024_ENSMUST00000025997|mouse|control|control (ssRNA)
RNA: GGGAGUUCUACAGUCCGACGAUCCGUUUUGCCUCCAUGUUCCAAUGAACUGUUGGAAUAUGUCAAGUGCAAAGCAUCUGAAAAUUCCAAAUUAGGACUUAGAAACGGUCUACACAACAUCAGUUCAAUGGGCCUGACGUUCAGCAACAGAGGAUUGAGCAUCA
B19: chr6:128323885:128323886:+_ENSMUSG00000001517_ENSMUST00000073316|mus_hu|FALSE|FALSE (ssRNA)
RNA: GGGAGUUCUACAGUCCGACGAUCUGGGUCCUCGUCCAGGCCAGGAAAGCUGAUGUCCAGCAGGAUCUUGCUGAGGCUGUCAUUCAUUGUGUCCAGGACCAGGCCUUCUGUCAGAGAACGAUUGGCUGCAAGGCCAGAAACCUGCAACAGAGGAUUGAGCAUCA
B20: chr12:7074771:7074772:-_ENSG00000215021_ENST00000535923|hu_mus|FALSE|FALSE (ssRNA)
RNA: GGGAGUUCUACAGUCCGACGAUCGAGGGCAGAUACAGAAAAGUCCAUCACAUGAUGCCUGGGGCAGGGUGGGCUGUGCUUGACCCCCGAGCUGGCUCCUCCAAGCUGGACAAGUGUGCCAACUUCUCUGGUGGUGGGGUUCUUCAACAGAGGAUUGAGCAUCA
B21: 31989591_31993041_617_CDS_ENSMUSG00000024400_ENSMUST00000025264|mouse|control|control (ssRNA)
RNA: GGGAGUUCUACAGUCCGACGAUCGUUGAAAGUCAGCCCAUUCCACAAGGUGAACUCCCCACUAGAAGCUCCAGUGACCAAUCGUCUUCCUUCCGGGGUCCACCUCACAACAAAUACUGGGCAUUUAACUUUGUUUGUUGAUGUCAACAGAGGAUUGAGCAUCA
B22: chr12:39756943:39756944:-_ENSG00000139116_ENST00000544797|hu_mus|hu_hu_hu_mus_False|8_68 (ssRNA)
RNA: GGGAGUUCUACAGUCCGACGAUCGGUUUGGCUGUUACCCCCAAGGGAAUCCUGCAAGAGUCUUGUCAGCUUGGAAUCUCUGUAAGGGACAUGGGUGGCUCUCUUGCUCUUGUCCCCCAAGGCGCUGAUUACAUUGCCAAGAGCCAACAGAGGAUUGAGCAUCA

Some of the results follow.

The target in the experiment is T1, UNK ZnF1-3 (human, UniProt Q9C0B0 31-174).
T1 sequence: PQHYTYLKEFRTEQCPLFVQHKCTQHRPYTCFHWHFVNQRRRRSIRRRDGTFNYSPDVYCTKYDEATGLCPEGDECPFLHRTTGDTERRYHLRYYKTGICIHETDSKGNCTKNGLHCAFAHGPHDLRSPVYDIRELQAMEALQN
In words: nsRBNS (natural sequence RNA bind-n-seq); RBNS binding buffer (assumed for nsRBNS): 25 mM Tris pH 7.5, 150 mM KCl, 3 mM MgCl2, 0.01% Triton X-100, 500 ug/ml BSA, 20 U/ml SUPERase-In, 4 C; UNK is unkempt and MSI1 is Musashi-1; names of the RNAs are library labels; protein concentration not given here; high values mean tight binding.
Molecule B1 displayed a binding signal of 1.33 enrichment R.
Consider B2, for which the binding signal turned out to be 1.58 enrichment R.
For B3 the value was 0.646 enrichment R.
B4 gave a binding signal of 0.695 enrichment R.
For B5 the value was 0.617 enrichment R; for B6, 0.684 enrichment R.
For B7 the value was 0.649 enrichment R; for B8, 1.24 enrichment R.
For B9 the value was 1.3 enrichment R; for B10, 0.688 enrichment R.
B11 had a binding signal of 0.966 enrichment R.
In the case of B12 it was 1.24 enrichment R; in that of B13, 1.51 enrichment R.
In the case of B14 it was 0.985 enrichment R; in that of B15, 1.21 enrichment R.
In the case of B16 it was 0.454 enrichment R; in that of B17, 1.17 enrichment R.
On to B18, for which the binding signal worked out at 0.465 enrichment R.
In the case of B19 it was 0.65 enrichment R; in that of B20, 1.26 enrichment R.
For B21 the value was 0.467 enrichment R.
In turn, B22 came in with a binding signal of 0.672 enrichment R.
